Experimental data published in paper PMC4336329 (PLoS ONE, 2015).
In all, about 310,000 compounds went through this assay and about 14,000 (4.5%) showed an effect of 50% or more. Effects have a minus sign here. This is one part of the list.

molecular target: human ether-à-go-go-related gene (hERG) potassium channel (human, UniProt Q12809); test: primary screen, population patch clamp on CHO cells stably expressing hERG
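Also: peak tail current of the secondary pulse compared with the same well before compound.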

Sequence of human ether-à-go-go-related gene (hERG) potassium channel (Q12809 whole entry, looked up): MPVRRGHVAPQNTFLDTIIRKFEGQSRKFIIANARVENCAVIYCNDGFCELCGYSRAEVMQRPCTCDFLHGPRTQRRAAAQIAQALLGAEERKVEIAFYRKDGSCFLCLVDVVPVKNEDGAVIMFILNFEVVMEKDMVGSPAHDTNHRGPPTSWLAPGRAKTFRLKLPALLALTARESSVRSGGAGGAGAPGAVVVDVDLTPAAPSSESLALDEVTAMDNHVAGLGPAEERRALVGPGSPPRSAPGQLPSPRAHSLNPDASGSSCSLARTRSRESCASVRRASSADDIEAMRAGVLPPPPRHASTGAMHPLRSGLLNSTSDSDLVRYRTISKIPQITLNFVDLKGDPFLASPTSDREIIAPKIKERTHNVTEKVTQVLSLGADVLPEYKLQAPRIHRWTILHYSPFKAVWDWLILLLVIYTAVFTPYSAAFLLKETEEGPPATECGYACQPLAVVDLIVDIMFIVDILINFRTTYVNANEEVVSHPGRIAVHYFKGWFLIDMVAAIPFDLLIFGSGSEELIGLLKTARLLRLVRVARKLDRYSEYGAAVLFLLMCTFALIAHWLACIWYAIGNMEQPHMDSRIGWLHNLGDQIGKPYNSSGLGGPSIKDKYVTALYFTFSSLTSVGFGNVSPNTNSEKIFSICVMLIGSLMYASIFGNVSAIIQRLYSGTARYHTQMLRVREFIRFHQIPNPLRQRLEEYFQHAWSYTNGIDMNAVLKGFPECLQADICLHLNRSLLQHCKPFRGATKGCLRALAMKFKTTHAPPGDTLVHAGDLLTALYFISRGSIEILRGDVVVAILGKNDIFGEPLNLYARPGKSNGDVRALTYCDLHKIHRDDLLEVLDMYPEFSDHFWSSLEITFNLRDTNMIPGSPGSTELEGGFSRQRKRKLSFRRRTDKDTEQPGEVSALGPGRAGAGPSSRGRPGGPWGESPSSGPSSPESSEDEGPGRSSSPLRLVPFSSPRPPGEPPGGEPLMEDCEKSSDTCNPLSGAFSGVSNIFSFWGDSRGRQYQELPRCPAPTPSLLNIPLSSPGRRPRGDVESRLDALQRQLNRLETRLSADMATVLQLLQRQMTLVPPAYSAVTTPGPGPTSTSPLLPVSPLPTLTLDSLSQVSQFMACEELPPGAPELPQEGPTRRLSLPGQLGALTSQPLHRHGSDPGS

Row | Structure (SMILES) | hERG current change (%, negative = inhibition) at 10uM [%]
1 | CCCCCCC(=O)Nc1ccc(Br)cn1 | -10.8
2 | COc1ccc(CCNC(=O)C(=O)NCC2OCCN2S(=O)(=O)c2ccc(OC)c(OC)c2)cc1 (stereo not shown) | -19.8
3 | O=C(Nc1cccc2ncccc12)c1cc(Br)ccc1Cl | 1.08
4 | CC(=O)CSc1ncnc2sc3c(c12)CCCC3 | 5.89
5 | CCOP(=O)(CN(CC)C(=O)c1ccccc1Br)OCC | 2.97
6 | COc1ccc(Br)cc1CN1CCN(c2ncccn2)CC1 | -11.8
7 | NC(=O)CSc1nnc(-c2cccc(S(=O)(=O)N3CCCCC3)c2)o1 | 3.2
8 | COc1ccc(Cc2c[nH]c(=O)[nH]c2=O)cc1 | -1.29
9 | COc1ccc(NC(=O)CSc2nccn2Cc2ccc(F)cc2)c(OC)c1 | -21.1
10 | COc1ccc(OC)c(S(=O)(=O)N2CCC(C(=O)N3CCCC3)CC2)c1 | 7.71
11 | Cc1ccc(NC(=O)COc2ccc3c(c2)OCO3)c(C)c1 | 2.77
12 | CN(NC(=O)c1ccccc1F)c1nc(C(F)(F)F)nc2ccccc12 | -12.2
13 | CN1C[N+]([O-])=C(c2ccccc2)C1(C)C | 11.2
14 | CCOC(=O)c1sc(NC(=O)c2c(CC)noc2C)nc1C | -15.2
15 | NS(=O)(=O)c1ccc(CNC(=O)C2(c3ccc(Cl)cc3)CC2)cc1 | 8.76
16 | O=C(O)CSc1nnc2n(-c3ccccc3)c(=O)c3ccccc3n12 | -10.3
17 | O=C(Cc1nnc(NC(=O)Nc2ccc(F)cc2)s1)Nc1ccccc1 | 12.1
18 | O=C(OCC(F)(F)F)c1cccc(COc2ccc3ccccc3c2)c1 | 3.14
19 | c1ccc(Cc2noc(CN3CCCN(C4Cc5ccccc5C4)CC3)n2)cc1 | -80
20 | COC(=O)C[C@H]1c2cc(F)ccc2S(=O)(=O)N1c1ccc(N(C)C)cc1 | 14.4
21 | Cc1nn(C(=O)c2cccc([N+](=O)[O-])c2)c(C)c1Br | 4.02
22 | COc1ccccc1C(CCN(Cc1cccs1)C(C)=O)c1ccco1 (stereo not shown) | -2.93

Row | Structure (SMILES) | hERG current change (%, negative = inhibition) at 10uM [%]
23 | CC(NS(=O)(=O)c1ccccc1)C(=O)NC1CCCC1 (stereo not shown) | 0.0711
24 | O=c1[nH]c(/C=C/c2cccnc2)c([N+](=O)[O-])c(=O)[nH]1 | 31.7
25 | CCc1c(C)nc2cc(-c3ccc(OC)c(OC)c3)nn2c1N1CCCC1 | 8.35
26 | CCCCc1c(C)c2cc(C)ccc2[nH]c1=O | 11.4
27 | COc1ccc(S(=O)(=O)Nc2ccc(N3CCOCC3)nc2)cc1 | 8.55
28 | Cc1ccc2c3c([nH]c2c1)C(=O)CC(C)(C)S3 | 13
29 | COc1ccc(CNCC(O)COc2ccc(C)cc2[N+](=O)[O-])cc1 (stereo not shown) | -71.2
30 | CSc1nc(-c2ccco2)nn1S(=O)(=O)c1ccccc1 | 4.41
31 | C=CCSc1nnnn1-c1ccc(OC)cc1 | -20
32 | COc1cc(C(=O)Nc2nc3ccc(S(=O)(=O)N4CCOCC4)cc3s2)cc(OC)c1OC | -5.58
33 | Cc1cn(-c2cc(NC(=O)c3ccc(C)c(NC(=O)c4cccc(-c5cn[nH]c(=O)c5)c4)c3)cc(C(F)(F)F)c2)cn1.O=C(O)C(F)(F)F | 8.75
34 | O=C(Cn1cc([N+](=O)[O-])cn1)N1CCc2ccccc2C1 | -2.02
35 | COc1cc2c(cc1NC(=O)COC(=O)[C@@H](NC(=O)c1ccccc1)C(C)C)oc1ccccc12 | 1.32
36 | Cc1ccc(F)c([C@H]2[C@H]3C=CC[C@@H](C)[C@@H]3C(=O)N2Cc2ccccc2)c1 | -10.5
37 | COc1ccc(COc2ccccc2C(N)=O)cc1F | 3.05
38 | O=C(COC(=O)c1cccnc1)Nc1ccc(F)cc1 | 1.87
39 | CCOc1ccccc1OCCn1nc2ccccc2n1 | 6.37
40 | O=C(O)C1=CC[C@@H](c2ccc(Cl)cc2)N(S(=O)(=O)c2ccc(Cl)cc2)C1 | 21.6
41 | COc1cccc(N2CC(O)Cn3c2nc2c3c(=O)[nH]c(=O)n2C)c1 (stereo not shown) | 6.32
42 | CCC(=O)c1ccc(OCC(=O)NCC2(N3CCCCC3)CCCCC2)cc1 | -51.5
43 | CSC(SC)=C(C#N)C(=O)c1ccccc1 | 4.47
44 | Cc1oc2ccc(NS(=O)(=O)c3cccc4cccnc34)cc2c1C(=O)OC(C)C | 22.3

Row | Structure (SMILES) | hERG current change (%, negative = inhibition) at 10uM [%]
45 | CC(=O)c1ccc(N2CCN(C(=O)c3c(-c4ccccc4Cl)noc3C)CC2)cc1 | -10.4
46 | O=C1CCC(Cc2ccccc2)N1 (stereo not shown) | 16.1
47 | CCCCn1c(-c2nn(C)cc2Cl)n[nH]c1=S | 6.61
48 | CCCCC(NC(=O)Cc1c(C)c2cc3c(-c4ccccc4)coc3c(C)c2oc1=O)C(=O)O (stereo not shown) | 13.2
49 | O=C(O)C(=O)O.O=C(c1cccc(Cl)c1)N1CCN(Cc2c[nH]c3ccccc23)CC1 | -20.4
50 | O=C(NCC1CCCO1)c1ccc2nc(N3CCCCC3)sc2c1 (stereo not shown) | -27.2
51 | CN(Cc1ccccc1)c1ncnc2ccc(Br)cc12 | -27
52 | CN1CCC(OC(=O)c2ccccc2)CC1.Cl | 7.92
53 | COc1cc(N2C(=O)c3ccccc3C2=O)c(Cl)cc1C(=O)OCC(=O)NCc1ccco1 | -56.1
54 | CC(C)Oc1cccc(C(=O)C2CCCN(S(=O)(=O)C(C)C)C2)c1 (stereo not shown) | -21.7
55 | CCN1C(=O)[C@@H]2[C@@H](c3ccc(-c4ccc(F)cc4)cc3)N3CCC[C@@]3(C(=O)OC)[C@@H]2C1=O.O=C(O)C(F)(F)F | -20.7
56 | COC(=O)C1=C(N)Oc2cc(C)n(CCCn3ccnc3)c(=O)c2C1c1ccc(Cl)cc1 (stereo not shown) | -59.8
57 | O=C(NC(=S)Nc1ccccc1O)c1ccccc1Cl | 13.3
58 | O=C(CCc1nc(-c2ccccc2Cl)no1)Nc1cccnc1 | -2.65
59 | NC(=O)c1nnn(-c2cccc(C(F)(F)F)c2)c1-c1ccccc1 | 12.5
60 | COc1cc2c(cc1OC)C1(CCCC1)CNC2C.Cl (stereo not shown) | -3.04
61 | COCCNC(=O)c1cc2ncc(Br)cn2n1 | 5.41
62 | CCCCn1c(SCC(=O)N2c3ccccc3CCc3ccccc32)nc2c1c(=O)n(C)c(=O)n2C | -1.44
63 | CCOC(=O)c1cc(CC)sc1NC(=O)CN1CCN(C(=O)C2CCCO2)CC1 (stereo not shown) | -65.9
64 | O=C(Cn1ccc2ccccc2c1=O)NCCC(=O)N1CCN(c2cccc(Cl)c2)CC1 | -8.46
65 | COc1ccc(CC2(CO)CCN(Cc3ccc(NC(C)=O)cc3)CC2)cc1 | -57.4
66 | COc1ccc(C(=O)N2CCCCC2)cc1S(=O)(=O)Nc1ccccc1 | -0.348

Row | Structure (SMILES) | hERG current change (%, negative = inhibition) at 10uM [%]
67 | Cc1cc(CNC(=O)C2(C(F)(F)F)C/C(=C\CCO)CCCO2)nn1C (stereo not shown) | 4.95
68 | CCCNc1nc(C)cc(-c2cc(-c3ccccc3)on2)n1 | 19.9
69 | Cc1nc(C)c(Oc2ccc(Cl)cc2Cl)c(=O)[nH]1 | 13.4
70 | O=C(C1CCCCC1)N1CCN(S(=O)(=O)c2ccc(Br)cc2)CC1 | -4.21
71 | Cc1ccc(C(=O)NNC(=O)CCC(=O)NCc2ccccc2)cc1Br | 7.76
72 | CC(=O)N(CN1C(=O)c2ccccc2C1=O)c1ccc2c(c1)oc1ccccc12 | -2.01
73 | CCCCn1c(=O)c(C(=O)NCc2ccccc2OC)c(O)c2ccccc21 | 5.98
74 | O=P(OC1CCCCC1)(OC1CCCCC1)C(Nc1ccccc1)c1cccnc1 (stereo not shown) | -33.6
75 | CSCC[C@H](NC(=O)Nc1ccccc1C)C(=O)O | 0.33
76 | COc1cc(SC#N)ccc1N=Cc1c(C)[nH]n(-c2ccc(Cl)cc2)c1=O | -4.93
77 | CCOc1ccc(Nc2cc(C)c3ccccc3n2)cc1 | 0.00468
78 | CCOc1ccc(C2=Nc3ccc(Br)cc3C(c3ccc(N4CCOCC4)cc3)=NN2)cc1 | 14.3
79 | O=C(CCCOc1ccccc1)NCc1ccco1 | -8.64
80 | CCCn1nnnc1NCc1ccc(CC)cc1 | -6.44
81 | CCOC(=O)C1(CCOC)CCN(C2C3CC4CC(C3)CC2C4)CC1 (stereo not shown) | 5.57
82 | Cc1oc2cc3oc(=O)c(CCC(=O)N[C@H](C(=O)O)C(C)C)c(C)c3cc2c1C | 7.35
83 | COc1ccc(C2CC(c3ccccc3)=NN2C(=O)COC(=O)c2cccc(S(=O)(=O)N3CCOCC3)c2)cc1 (stereo not shown) | 13.5
84 | Cc1nc(SCC(=O)Nc2c(C)n(C)n(-c3ccccc3)c2=O)c(C#N)c(C)c1C | -46.8
85 | COc1cc2c(cc1OC)C(C(=O)NC1CC1)C1c3ccccc3CCN1C2=O (stereo not shown) | -4.76
86 | O=C(CCc1nnc(CCCCc2ccccc2)o1)NCCn1cccn1 | 4.22
87 | CC(=O)c1nn(-c2cccc(Br)c2)cc1C(=O)c1ccc2ccccc2c1 | 13.7
88 | N#CCC(CNc1ncc(C(F)(F)F)cc1Cl)OC(=O)c1cccc(C(F)(F)F)c1 (stereo not shown) | -5.32
